Converted amounts (≈) assume the structure as drawn.
Tests used:
[1] = test system: Nakaseomyces glabratus; assay: Antifungal activity against Candida glabrata after 24 hrs by broth microdilution method; type: functional
[2] = test system: Pichia kudriavzevii; assay: Antifungal activity against Candida krusei after 24 hrs by broth microdilution method; type: functional
[3] = test system: [Candida] sake; assay: Antifungal activity against Candida sake after 24 hrs by broth microdilution method; type: functional; details: Fermentozyma sake
[4] = Cytotoxicity against human EAhy926 cells assessed as cell survival fraction at 0.05 ug/ml after 24 hrs by trypan blue exclusion test; details: ea.hy 926, at 0.05 µg/mL
[5] = test system: Candida parapsilosis; assay: Antifungal activity against Candida parapsilosis after 24 hrs by broth microdilution method; type: functional; details: Lodderomyces parapsilosis
[6] = test system: Candida albicans; assay: Antifungal activity against Candida albicans after 24 hrs by broth microdilution method; type: functional
[7] = Cytotoxicity against human EAhy926 cells assessed as cell survival fraction at 50 ug/ml after 24 hrs by trypan blue exclusion test; details: ea.hy 926, at 50 µg/mL
[8] = Cytotoxicity against human EAhy926 cells assessed as cell survival fraction at 5 ug/ml after 24 hrs by trypan blue exclusion test; details: ea.hy 926, at 5 µg/mL
[9] = Cytotoxicity against human EAhy926 cells assessed as cell survival fraction at 0.5 ug/ml after 24 hrs by trypan blue exclusion test; details: ea.hy 926, at 0.5 µg/mL
[10] = test system: Candida tropicalis; assay: Antifungal activity against Candida tropicalis after 24 hrs by broth microdilution method; type: functional

| SMILES | MIC [1] [mg/L] | MIC [2] [mg/L] | MIC [3] [mg/L] | viability at 24 h, 0.05 ug/ml [4] [%] | MIC [5] [mg/L] | MIC [6] [mg/L] | viability at 24 h, 50 ug/ml [7] [%] | viability at 24 h, 5 ug/ml [8] [%] | viability at 24 h, 0.5 ug/ml [9] [%] | MIC [10] [mg/L] |
| --- | --- | --- | --- | --- | --- | --- | --- | --- | --- | --- |
| Cc1ccc(-c2csc(N/N=C3\CCCCC3C)n2)cc1 (stereo unspecified) | 0.5 (≈ 1.67 µM) | 64 (≈ 214 µM) | 32 (≈ 107 µM) | 85.7 | 8 (≈ 26.7 µM) | 0.25 (≈ 0.835 µM) | 64 | 63.6 | 78.5 | 2 (≈ 6.68 µM) |
| CC1CCC(=NNc2nc(-c3ccc(Cl)cc3)cs2)CC1 (stereo unspecified) | 32 (≈ 100 µM) | 0.5 (≈ 1.56 µM) | 2 (≈ 6.25 µM) | – | 8 (≈ 25 µM) | 0.5 (≈ 1.56 µM) | – | – | – | 2 (≈ 6.25 µM) |
| COc1ccc(-c2csc(N/N=C3\CCCCC3C)n2)cc1 (stereo unspecified) | 0.25 (≈ 0.793 µM) | 16 (≈ 50.7 µM) | 32 (≈ 101 µM) | 86 | 8 (≈ 25.4 µM) | 0.5 (≈ 1.59 µM) | 75 | 83.3 | 84 | 8 (≈ 25.4 µM) |

From ChEMBL document CHEMBL1140645, “Synthesis and in vitro activity of 2-thiazolylhydrazone derivatives compared with the activity of clotrimazole against clinical isolates of Candida spp” (Bioorg Med Chem Lett, 2007)
